Laboratory results taken from the supplement of paper PMC3334620.
The full ranking holds about 33,000 sequences; the median of “E-score (-0.5 to 0.5)” is about -0.035, and the highest 2% start at about 0.35. The list shows a part of the results.

The sequences below were run against T1, Pdr3 (UniProt P33200) (assay: PBM E-score (8-mer binding enrichment) (E-score (-0.5 to 0.5)); higher = stronger / more preferred TF binding; most listed sequences are background and not binding sites). Conditions: protein concentration: 200 nM; construct: GST-full length.
T1 sequence: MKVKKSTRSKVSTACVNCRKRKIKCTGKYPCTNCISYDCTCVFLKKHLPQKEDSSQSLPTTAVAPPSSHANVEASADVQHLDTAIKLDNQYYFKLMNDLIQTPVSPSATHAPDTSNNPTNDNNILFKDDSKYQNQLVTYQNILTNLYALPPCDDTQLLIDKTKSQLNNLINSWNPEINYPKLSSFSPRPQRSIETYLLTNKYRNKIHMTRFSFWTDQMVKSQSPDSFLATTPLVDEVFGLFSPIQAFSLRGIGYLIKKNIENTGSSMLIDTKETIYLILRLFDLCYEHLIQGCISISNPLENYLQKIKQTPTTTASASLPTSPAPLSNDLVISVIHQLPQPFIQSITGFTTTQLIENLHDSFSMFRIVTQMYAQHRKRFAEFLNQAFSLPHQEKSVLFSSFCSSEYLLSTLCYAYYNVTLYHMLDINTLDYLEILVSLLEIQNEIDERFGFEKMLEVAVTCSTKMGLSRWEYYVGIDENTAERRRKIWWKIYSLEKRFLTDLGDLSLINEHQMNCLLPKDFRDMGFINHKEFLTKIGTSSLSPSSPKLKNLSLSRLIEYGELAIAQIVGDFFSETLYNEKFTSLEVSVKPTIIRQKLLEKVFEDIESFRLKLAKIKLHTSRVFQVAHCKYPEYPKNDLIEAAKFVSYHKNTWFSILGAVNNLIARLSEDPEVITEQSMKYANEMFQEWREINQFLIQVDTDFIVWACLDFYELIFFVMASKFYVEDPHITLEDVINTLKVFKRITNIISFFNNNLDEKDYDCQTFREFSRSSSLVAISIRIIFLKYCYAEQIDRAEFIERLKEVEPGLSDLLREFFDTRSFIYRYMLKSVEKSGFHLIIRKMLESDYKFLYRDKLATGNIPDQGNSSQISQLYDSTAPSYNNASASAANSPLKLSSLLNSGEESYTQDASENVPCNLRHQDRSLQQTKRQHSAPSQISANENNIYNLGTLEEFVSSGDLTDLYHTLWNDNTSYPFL
Outline: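 Masliner-normalised scans of fluorescent anti-GST signal were the basis for scoring. That signal came from GST-tagged yeast transcription factors applied at about 100-200 nM to double-stranded universal all-10-mer Agilent arrays on fresh or once-stripped slides. Each ungapped eight-base word, pooled with its reverse complement, received an E-score from the Universal PBM Analysis Suite.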

| Sequence | PBM E-score |
| --- | --- |
| AGTTGACG | -0.0734 |
| GAAGCCTA | 0.0119 |
| TCAGCCCA | 0.0316 |
| CATCACTC | -0.0507 |
| GCTTGGCC | -0.00234 |
| CTAGAATC | -0.15 |
| CTGTCACC | -0.103 |
| CTTTAAAG | -0.362 |
| CATGTCAG | -0.16 |
| CCCGTACG | 0.066 |
| ACGACTGG | -0.101 |
| CCTGCCTC | -0.121 |
| CCTTCAAC | -0.206 |
| CGGGGCAA | 0.204 |
| ACACGAAC | 0.109 |
| CGTTTCAC | 0.0269 |
| CACTAACA | -0.106 |
| ATCGTCAT | -0.073 |
| CGATAACA | 0.0907 |
| CAACACTG | -0.19 |
| CGCTACCC | -0.0503 |
| AAACTGCC | 0.00197 |
| CGTTCAGA | -0.135 |
| AGTACAAA | -0.0913 |
| CGGCGATA | 0.258 |

| Sequence | PBM E-score |
| --- | --- |
| AACACGAG | -0.0542 |
| CCGCAGAG | -0.0664 |
| ACTGATAT | 0.0306 |
| AGCTAACC | -0.0479 |
| ACACAAAT | 0.058 |
| AAGCATGG | -0.0696 |
| ATGATGCA | -0.103 |
| ATTGCATA | 0.137 |
| AAGTATCA | 0.0363 |
| ATCGTTGG | -0.14 |
| AAGATTAC | -0.0126 |
| ACCTGAGG | -0.127 |
| GCGATAGA | -0.171 |
| GATCGGAC | 0.362 |
| ATATGCAC | 0.0159 |
| AGGTGGTC | -0.145 |
| GTTACCCA | -0.159 |
| ACATGTAG | 0.0291 |
| GCCTGGAA | -0.0452 |
| ATATAGCA | -0.144 |
| ACACGCGG | 0.134 |
| GCTACACC | -0.23 |
| CAAACCAA | 0.0107 |
| AGAATCGC | 0.0563 |
| CACTATGC | -0.0327 |

| Sequence | PBM E-score |
| --- | --- |
| GTCGTACA | -0.091 |
| ATGCGGAA | 0.416 |
| CCACACGG | 0.0795 |
| AACACTAC | -0.133 |
| CGGCACAG | 0.218 |
| GAGATTTA | -0.00055 |
| GGATTGAC | -0.0159 |
| CCGCGAAA | 0.196 |
| AGCCGTGC | -0.00554 |
| ACTTAATA | -0.0398 |
| CAAAGCTA | -0.0816 |
| ACGCCAAA | -0.178 |
| CCCGTCAC | 0.123 |
| ATCGATGC | 0.0656 |
| AGAAGCCA | -0.139 |
| ATGAGGAG | -0.166 |
| GTCCAGGA | -0.21 |
| GCATTTCC | 0.189 |
| TTCACCAA | -0.145 |
| AGTATCAC | -0.0714 |
| GATCTTCC | 0.191 |
| AATCACGG | 0.271 |
| GACGATAA | -0.102 |
| CCGACTAG | 0.0372 |
| AAATTTAT | 0.0509 |

| Sequence | PBM E-score |
| --- | --- |
| CTTAATGA | -0.195 |
| AGCGGCAT | 0.196 |
| ATGGTTAC | -0.15 |
| CGCCACCA | -0.173 |
| GCGTAACC | -0.174 |
| CATATAGC | 0.0552 |
| TATAACGA | 0.0373 |
| ATCGGCTA | 0.0766 |
| CCCACCTA | -0.174 |
| ACGAGTGC | -0.081 |
| ACTAAACC | -0.0497 |
| CCGTTGAA | 0.0461 |
| CAGAATCC | 0.0321 |
| GAGTGACC | -0.174 |
| GGCAATTA | -0.0251 |
| AAGGGCAG | -0.043 |
| ACAGTAAA | -0.0539 |
| GGATTGGA | 0.056 |
| CGACTTAC | 0.0129 |
| AATCGCAA | 0.00128 |
| CCTTCGTA | -0.14 |
| CTTTCGGC | 0.122 |
| CACATCTG | -0.154 |
| AGTACGGG | -0.0162 |
| TAAGCTAA | -0.098 |

| Sequence | PBM E-score |
| --- | --- |
| ATACCGGC | 0.28 |
| CTGTTTAA | -0.0465 |
| TCTGGTAA | -0.0417 |
| CGATAGTC | -0.0106 |
| CGTGGCAA | -0.00986 |
| TCATTTAA | -0.0612 |
| GTACCGAC | 0.0628 |
| AGAACTCT | -0.263 |
| AGGCACCG | -0.0476 |
| GAGAGGCA | 0.0187 |
| CCACACCA | -0.188 |
| GTCGCCAC | -0.192 |
| AAGTAAAC | 0.0413 |
| ATGGATAC | -0.0299 |
| AAACAAAG | 0.0976 |
| GTGGCCTA | -0.101 |
| CCCTTTCA | -0.208 |
| ATTAAGGC | -0.093 |
| CACTTTAC | -0.12 |
| CTAATCAA | 0.0558 |
| CGTCTAAC | 0.002 |
| AGGACGCC | -0.101 |
| CAGCGAAA | -0.0644 |
| ATGGGGTG | -0.0791 |
| GGTTACGA | -0.134 |

| Sequence | PBM E-score |
| --- | --- |
| TTGATAAA | 0.0182 |
| ATAACGGG | 0.0143 |
| ATGAATCA | -0.0384 |
| GACAAGTC | -0.114 |
| CCGTATCA | 0.22 |
| GCTAATAC | 0.114 |
| CTCTTCCA | -0.0819 |
| ACATTATA | 0.0218 |
| CACGGGGA | 0.247 |
| ATTACAAG | -0.105 |
| CGAGCTCA | 0.197 |
| CAGGTAAG | -0.157 |
| AGGCGGTA | -0.165 |
| GTAAGCGA | -0.108 |
| CCATAAAC | -0.137 |
| TCCGAGAA | 0.352 |
| GAATGACA | -0.059 |
| AATAGCGT | 0.0358 |
| CATACACG | -0.0823 |
| CTGCAGGA | -0.00999 |
| AGGTCGAA | 0.0331 |
| GGGTGGCA | 0.0491 |
| GGTCCCAC | 0.0558 |
| AGACGCGC | -0.0156 |
| CGACCCGA | 0.0813 |

| Sequence | PBM E-score |
| --- | --- |
| AAGAATGT | -0.149 |
| CCAGGCGG | 0.233 |
| CGGGCTAC | -0.0342 |
| AGCTTTTA | -0.106 |
| CTAACTGA | -0.202 |
| GATCAATA | -0.0113 |
| CGTCCACG | -0.00241 |
| CAAGTAGC | -0.262 |
| ATAATTCG | 0.0457 |
| CGAGATAC | 0.128 |
| GAAATACA | -0.0151 |
| GTGGTCAA | -0.144 |
| AAGAAGAG | -0.0929 |
| CTCTGGGA | -0.182 |
| AGTCCACC | -0.00463 |
| AGTGGGCA | -0.0328 |
| ACCATGGA | -0.151 |
| CGTGTCTA | 0.0459 |
| GCGTGGAC | -0.129 |
| GCGACGCA | -0.126 |
| TGTACTAA | -0.156 |
| ACGCGAAC | 0.0625 |
